PubChem BioAssay AID488969 (Vanderbilt High Throughput Screening Facility, 2010)
The full ranking holds about 110,000 compounds; the median of “z-score” is about -0.1, and the highest 2% start at about 2. This is one part of the list. The source made the active and inactive calls.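 How the source made its calls: active means z-score in the third read window above 3 or below -3; inactive means the rest.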

Target: Metabotropic glutamate receptor 8 (Rattus norvegicus) (UniProt P70579)
Experiment: mGluR8 Gi/Go-coupled signaling modulation – cell-based, rat, thallium flux, HTS, primary screen (AID 488969)
Details: HEK293 rat mGluR8, GIRK (G protein-gated inwardly rectifying potassium channel) thallium flux, FluoZin2; at 10 µM; stronger effect = higher value; submaximal glutamate (EC20) added with thallium

Sequence of UniProt P70579 (P70579 whole entry, looked up): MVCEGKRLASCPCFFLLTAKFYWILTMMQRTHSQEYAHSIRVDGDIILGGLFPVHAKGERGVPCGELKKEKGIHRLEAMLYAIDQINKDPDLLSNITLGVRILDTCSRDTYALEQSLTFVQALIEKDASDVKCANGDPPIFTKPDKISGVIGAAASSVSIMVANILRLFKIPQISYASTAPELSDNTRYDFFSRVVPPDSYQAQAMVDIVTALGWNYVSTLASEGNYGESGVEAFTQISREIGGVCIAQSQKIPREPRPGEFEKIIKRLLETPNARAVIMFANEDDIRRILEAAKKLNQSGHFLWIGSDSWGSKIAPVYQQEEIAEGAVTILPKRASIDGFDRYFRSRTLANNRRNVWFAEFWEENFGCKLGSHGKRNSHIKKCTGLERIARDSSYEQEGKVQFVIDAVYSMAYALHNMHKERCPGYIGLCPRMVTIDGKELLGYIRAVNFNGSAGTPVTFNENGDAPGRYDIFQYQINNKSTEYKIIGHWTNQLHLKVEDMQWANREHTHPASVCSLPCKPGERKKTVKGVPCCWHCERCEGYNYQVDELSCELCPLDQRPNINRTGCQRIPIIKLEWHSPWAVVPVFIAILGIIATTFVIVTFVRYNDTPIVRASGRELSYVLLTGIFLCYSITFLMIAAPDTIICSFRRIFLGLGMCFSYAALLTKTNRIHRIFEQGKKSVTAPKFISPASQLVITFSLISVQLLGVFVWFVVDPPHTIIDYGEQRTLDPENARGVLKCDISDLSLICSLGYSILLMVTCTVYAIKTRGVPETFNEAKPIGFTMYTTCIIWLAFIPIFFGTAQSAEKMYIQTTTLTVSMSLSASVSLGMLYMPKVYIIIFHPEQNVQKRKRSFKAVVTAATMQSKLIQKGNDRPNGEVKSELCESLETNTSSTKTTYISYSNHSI

Row | Compound | z-score
1 | Cc1cc(-n2c(C)cc(C(=S)N3CCOCC3)c2C)ccc1Br | -1.47
2 | CCCCNC(=O)COC(=O)CCC(=O)c1cccs1 | 0.202
3 | CCC(=O)N1CCc2cc(S(=O)(=O)NC(C(=O)NCc3ccc(F)cc3)C(C)C)ccc21 (centres undefined) | -0.156
4 | N#Cc1cc2cc3c(cc2nc1SCC(=O)OC1CCCCC1)OCO3 | 0.0517
5 | O=c1oc2c(CN3CCOCC3)c(O)ccc2c2ccccc12 | -0.177
6 | CC(C)(/C=N/O)/[N+]([O-])=C/C=[N+](\[O-])C(C)(C)/C=N/O | -0.189
7 | COc1ccc(NC(=O)C=C(C)C)cc1Cl | -0.139
8 | O=C(O)CCSc1nnc(SCC(=O)NCC(F)(F)F)s1 | 0.131
9 | Cc1ccc(-c2cnc(N)n2C)cc1C | 0.959
10 | Cc1onc(-c2ccccc2)c1C(N)=O | -0.0284
11 | COc1ccc(NC(=O)CCCCCN2C(=O)CCC2=O)cc1Cl | -0.291
12 | COc1ccc(N2C(=O)CC(N3CCN(C4CCc5ccccc5C4)CC3)C2=O)cc1 (centres undefined) | 0.44
13 | Cc1cc2c(cc1C)NC(c1c(C)n(C)n(-c3ccccc3)c1=O)C1=C(CC(C)(C)CC1=O)N2 (centres undefined) | active: -3.25
14 | Cc1c(C(=O)OC2CCCCC2)sc2nc[nH]c(=O)c12 | 0.108
15 | CCOC(=O)c1c(NC(=O)c2ccc(N3C(=O)[C@@H]4[C@H](C3=O)[C@H]3C=C[C@@H]4C3)cc2)sc2c1CCCC2 | -0.227
16 | CCCCC(CC)C(=O)Nc1ccc(Nc2ccccc2)cc1 (centres undefined) | -0.119
17 | Cc1nc2ccc(N)cc2s1 | -0.192
18 | CC(C)(C)NS(=O)(=O)c1cccc(S(=O)(=O)c2cccc(S(=O)(=O)NC(C)(C)C)c2)c1 | -0.252
19 | Cc1cccc(C(=O)NCc2nnc(SCC(=O)N3CCN(c4ccccc4)CC3)n2C)c1 | 0.0474
20 | O=C(NCCN1CCOCC1)c1cn(CCc2ccccc2)nn1 | -0.563
21 | CCCCCC(=O)Nc1ccc(-c2csc(C)n2)cc1 | -0.378
22 | COCCCNC(=O)Cc1ccccc1OC | 0.194
23 | Cn1c(=O)c2c(nc(CN3CCN(c4ccccc4F)CC3)n2CCCc2ccccc2)n(C)c1=O | -0.651

Row | Compound | z-score
24 | CCCCN1C(=O)C2C(c3ccc(OC)cc3O)NC(CC(C)C)(C(=O)O)C2C1=O (centres undefined) | -0.261
25 | O=C(COC(=O)[C@H](Cc1ccccc1)NC(=O)c1cccs1)NC1CCCCC1 | -0.0264
26 | CCOC(=O)C1CN(S(=O)(=O)c2cccc(C(F)(F)F)c2)c2cc(CC(=O)OC)ccc2O1 (centres undefined) | -0.43
27 | CC(C)C1O/C(=N/C(=O)Nc2ccc(Cl)c(Cl)c2)NC1=O (centres undefined) | 0.0865
28 | Brc1ccc(N=C/C=C/C=C/Nc2ccc(Br)cc2)cc1 | 0.151
29 | Cc1ccc(OCC(O)Cn2c(=N)n(Cc3ccccc3)c3ccccc32)cc1 (centres undefined) | active: 4.01
30 | CCc1ccccc1NC(=S)NC1CC2CCC(C1)N2Cc1ccco1 (centres undefined) | -0.15
31 | Cc1nc(NC(=O)c2cccc(-c3cc4ccccc4oc3=O)c2)ccc1Br | -0.316
32 | Cc1nc2ccccc2c(=O)n1/N=C/c1ccncc1 | -0.171
33 | Cc1nc(N2CCN(C(=O)COc3ccccc3)CC2)c2c(C)c(C)sc2n1 | active: -4.29
34 | COc1ccc(C2CC(=O)Nc3sc(=N)c4c(N)c(C#N)c(N)nc4c32)cc1OC (centres undefined) | -0.465
35 | CC(C)Oc1ccc(C(=O)NC2CCCCC2)cc1 | 0.0934
36 | O=C(O/N=C(\c1ccccc1)c1ccccn1)c1cccc2ccccc12 | -0.00197
37 | O=C(NCc1cccs1)C1CCN(c2nc3ccccc3o2)CC1 | 0.764
38 | CCNC(=O)CSc1nnc(-c2cc(-c3ccc(Cl)cc3)nc3ccccc23)o1 | -0.336
39 | CCOC(=O)Cc1cc(=O)n2[nH]c(-c3ccc(C)cc3)cc2n1 | -0.304
40 | CCc1[nH]nc2c1C(c1cccc(OC(=O)N3CCOCC3)c1)C(C#N)=C(N)O2 (centres undefined) | -1.34
41 | CC1=NN(C(=O)c2cccc(Cn3nc(C)c([N+](=O)[O-])c3C)c2)C(O)(C(F)(F)F)C1 (centres undefined) | -0.74
42 | COc1ccc(-c2cn(-c3ccc(SC(F)F)cc3)c3[n+]2CCC3)cc1OC | 0.034
43 | COc1ccc(-c2[nH]nc3c2C(c2ccoc2)C(C#N)=C(N)O3)cc1 (centres undefined) | -0.602
44 | CC(C)NC(=O)CCCn1c(=S)[nH]c2cc3c(cc2c1=O)OCO3 | 0.566
45 | COc1ccc(N2CC(C(=O)Nc3cc(C)on3)CC2=O)cc1 (centres undefined) | -0.318
46 | CC1CCN(C2CCN(S(=O)(=O)c3ccc(F)cc3)CC2)CC1 | -0.0245

Row | Compound | z-score
47 | CCCOc1ccc(C(C)=O)cc1CSCCC#N | -0.853
48 | Cc1ccc(-n2[nH]c(C)c(/C=C3/C=Nc4ccccc43)c2=O)cc1C | 0.229
49 | O=C(CCc1ccc(S(=O)(=O)N2CCOCC2)cc1)N1CCCC1 | 2.62
50 | O=C(NC(=S)Nn1cnc2c(cnn2-c2ccccc2)c1=O)c1ccc(Oc2ccccc2)cc1 | 2.08
51 | COc1ccc(N2CCN(C(=O)CCc3nc(-c4ccc(C)cc4)no3)CC2)cc1 | -0.121
52 | O=C(CSc1nc2cc(Cl)ccc2o1)Nc1ccc(N2CCOCC2)cc1 | 0.208
53 | Cc1cccc(C)c1Nc1nnc(SCc2cn3cccc(C)c3n2)s1 | -0.119
54 | COC(=O)c1[nH]c2ccc(Cl)cc2c1NC(=O)CN1CCc2cc(OC)c(OC)cc2C1 | -0.16
55 | Cc1sc2ncnc(OCC(=O)NCC3CCCO3)c2c1C (centres undefined) | 0.408
56 | CN1C(=O)C(O)(CC(=O)c2ccccn2)c2cc(Br)ccc21 (centres undefined) | 1.17
57 | COc1ccc(OC)c(C2CC(=O)c3c([nH]c(C(=O)OCC4CCCO4)c3C)C2)c1 (centres undefined) | 0.286
58 | CCN(CCNS(=O)(=O)c1ccc2c(c1)oc(=O)n2C)c1ccccc1 | 0.162
59 | O=C(COC(=O)c1ccc(F)cc1)Nc1ccccc1N1CCOCC1 | -0.182
60 | Cn1c(=O)c(=O)n(C)c2cc(S(=O)(=O)N3CCN(Cc4ccccc4)CC3)ccc21 | -0.418
61 | CC(C)[C@H](NC(=O)c1ccco1)C(=O)OCC(=O)N1CCc2ccccc21 | -0.646
62 | C/C(=N\Nc1ccc(F)cc1F)c1ccc(F)cc1 | -0.00789
63 | CCOP(=O)(OCC)C(NC(=O)Nc1ccc(Cl)cc1)c1ccccc1 (centres undefined) | 0.164
64 | O=C(NCCN1CCOCC1)NC1(C(F)(F)F)Oc2ccccc2O1 | -0.129
65 | Cn1c(SCC(=O)C(C)(C)C)nnc1-c1ccccn1 | -0.215
66 | CCn1c(SCC(=O)c2ccccc2)nnc1-c1cnccn1 | -0.894
67 | COc1ccc(NC(=S)N2N=CCC2c2ccccc2)cc1 (centres undefined) | -0.671
68 | Cc1ccc(/C=N/c2sc3c(c2C#N)CCC3)o1 | -0.653
69 | CCOC(=O)c1c(C)[nH]c(C(=O)COC(=O)CCS(=O)(=O)c2ccc(C)cc2)c1C | -0.00371
